Where “and” joins values, the source holds several entries; their conditions need not be identical. Equal values may be shown once. The campaign covered roughly 110,000 compounds. About 230 (0.21%) showed an effect of 50% or more. Some of the results follow.
Target: DPAP1 (Plasmodium falciparum, UniProt Q8IIJ9)
Assay: primary screen, percent inhibition; read by cleavage of a fluorogenic dipeptide substrate; higher = more effect of the substance
Design: species or system P. falciparum D10 trophozoite lysates; single well
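Note: 30 min substrate incubation versus DMSO and 10 µM JCP410 controls.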

Sequence of DPAP1 (Q8IIJ9 whole entry, looked up): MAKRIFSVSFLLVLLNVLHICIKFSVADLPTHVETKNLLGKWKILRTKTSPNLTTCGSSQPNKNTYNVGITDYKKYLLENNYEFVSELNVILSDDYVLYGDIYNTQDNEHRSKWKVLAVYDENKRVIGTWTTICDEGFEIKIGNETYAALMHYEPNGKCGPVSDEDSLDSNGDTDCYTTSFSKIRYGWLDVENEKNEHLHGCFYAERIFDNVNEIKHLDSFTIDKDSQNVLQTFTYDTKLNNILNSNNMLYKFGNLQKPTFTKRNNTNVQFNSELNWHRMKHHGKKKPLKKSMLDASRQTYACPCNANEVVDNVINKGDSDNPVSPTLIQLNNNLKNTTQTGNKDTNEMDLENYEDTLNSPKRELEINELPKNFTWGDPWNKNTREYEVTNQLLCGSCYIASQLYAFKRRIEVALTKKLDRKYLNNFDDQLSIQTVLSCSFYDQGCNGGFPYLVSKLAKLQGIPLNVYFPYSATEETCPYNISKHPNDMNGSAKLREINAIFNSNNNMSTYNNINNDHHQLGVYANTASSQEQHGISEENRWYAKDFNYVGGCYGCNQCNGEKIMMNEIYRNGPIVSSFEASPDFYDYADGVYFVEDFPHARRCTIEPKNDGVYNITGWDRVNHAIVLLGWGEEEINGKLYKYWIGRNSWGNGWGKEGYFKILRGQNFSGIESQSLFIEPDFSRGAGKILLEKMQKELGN

SMILES | % Inhibition @ 10 uM
CNC(=O)c1[nH]c2cc(OC)ccc2c1Sc1ccc(C)cc1 | -2.96%
Cc1ccc(NC(=O)CN2C(=O)C3C4CCC(C4)C3C2=O)cc1 (stereo not drawn) | -9.4%
CCOC(=O)c1c(NC(=O)c2ccc(C)cc2)sc(C(=O)NC2CCCCC2)c1C | 5.44%
COc1ccc(N2CCN(Cc3cccc(Br)c3)CC2)cc1 | -2.7%
NC(=O)c1c(NC(=O)COc2ccccc2)sc2c1CCCCC2 | 1.88%
NC(=O)c1ccc(NC(=O)CN2CCN(Cc3ccccc3)CC2)cc1 | -6.57%
COc1ccc(NC(=O)CSc2nc(-c3ccc4c(c3)OCO4)ccc2C#N)cc1OC | -4.61%
COc1ccc(N2CCN(C(=O)c3cc(C(F)(F)F)[nH]n3)CC2)cc1 | -3.72%
Cc1oc(C(=O)N2CCCC2C(=O)O)cc1COc1ccc2oc3ccccc3c2c1 (stereo not drawn) | 5.87% and 5.72%
COc1ccc(-n2c(C)nc3cc(C(=O)N4CCOCC4)ccc32)cc1 | -2.17%
Oc1cc(C(F)(F)C(F)(F)C(F)(F)C(F)(F)F)nn1-c1ccccc1 | 0.0719%
CC(C)C[C@H](NC(=O)c1ccc(-c2csc(Nc3ccccn3)n2)cc1)C(=O)NCC#N | -2.35%
COc1ccc(CC(=O)NCc2nc(-c3ccc(Cl)cc3)no2)cc1OC | -4.82%
CC(C)NC(=O)/C=C/c1ccccc1Cl | -1.62%
OCCNc1nc(N2CCN(Cc3ccccc3)CC2)nc2ccccc12 | -1.82%
CC1CN(C)CCC1(O)c1ccccc1 (stereo not drawn) | -3.82%
COc1cccc(NC(=O)CCC(=O)O)c1 | 0.878%
CCCCC(=O)Nc1ccc(-c2cn3ccsc3n2)cc1 | 4.67%
CCOC(=O)N1CCC(NC(=O)c2cnn(-c3ccc(C)c(C)c3)c2C2CCNCC2)CC1 | -2.71%
CC1CCCC(NC(=O)CCCn2c(=O)c3cccn3c3cccnc32)C1C (stereo not drawn) | 1.5%
O=C(CCSc1nccn1Cc1ccccc1)Nc1ccc(Cl)cc1 | 1.42%
CC(C)(O)C(C)(C)C(OC(=O)c1ccccc1)c1ccccc1 (stereo not drawn) | 0.847%
Cc1[nH]cnc1CN1CCCCCC1 | -6.85%
O=C(O)c1ccc(N2C(=O)c3ccccc3C2=O)cc1[N+](=O)[O-] | 3.47%
CC1(C)CC(=O)C(c2nc3cc(C(=O)c4ccccc4)ccc3[nH]2)=C(O)C1 | 4.61%
O=C(NCc1ccc2c(c1)OCO2)c1ccc(COc2cccc(Cl)c2)o1 | -3.13%

SMILES | % Inhibition @ 10 uM
OC(CNC1CCCCC1)Cn1c2ccc(Cl)cc2c2cc(Cl)ccc21 (stereo not drawn) | -5.16%
Cc1ccc(NC(=O)c2ccc(Cl)c(Cl)c2)cc1O | 1.39%
CC(=O)N(C)c1ccc(NC(=O)c2ccc(-c3ccccc3)cc2)cc1 | 1.63%
CCN1CCN(C(=O)C2CCN(Cc3nc(-c4cccc(Cl)c4)oc3C)CC2)CC1 | 0.475%
COC(=O)c1cc(-c2ccc(OCc3ccccc3)c(OC)c2)no1 | 22.9%
CCCn1c2ccccc2c2cnn(CC(=O)NCCc3ccc(Cl)cc3)c(=O)c21 | 0.721%
c1ccc(CCC2=NCCn3cccc32)cc1 | -3.65%
O=C(Nc1cccc([N+](=O)[O-])c1)c1cccc([N+](=O)[O-])c1 | 1.54%
O=C(CCCC(=O)c1ccccc1)NCc1cccc2ccccc12 | -3.44%
O=C(CCCCCN1C(=O)c2ccccc2C1=O)Nc1cccc(Cl)c1 | 4.88%
FC(F)(F)c1cccc(CNC2CCN(CCc3ccccc3)CC2)c1 | 0.217%
Cc1n[nH]c(C)c1CCc1nc2c3ccccc3nc(S)n2n1 | 18.4%
c1ccc2c(c1)nc(N1CCN(C3CCCCC3)CC1)c1nnnn12 | 0.166%
CCCCCCNC(=O)Nc1ccccc1 | 1.83%
COc1ccc(C2CC(=O)C3=C(C2)NC(=O)CC3c2cccc(Oc3ccccc3)c2)cc1 (stereo not drawn) | 3.11%
CC(C)CC(NC(=O)NCc1ccccn1)C(=O)NCC#N (stereo not drawn) | -3.97%
CCN(CCN(C)C)Cc1ccc([N+](=O)[O-])cc1 | -5.42%
COc1cc(OC)c(C2SCCN2S(=O)(=O)c2ccc(Cl)cc2)cc1OC (stereo not drawn) | -13.3%
CCC1CCCCN1Cc1ccc(CNC(=O)Nc2cn(CC(C)C)c(=O)c3ccccc23)o1 (stereo not drawn) | -3.45%
COc1ccccc1N1CCN(S(=O)(=O)c2ccc(-c3ccccc3)cc2)CC1 | 6.08%
CCC[C@H](NC(=O)[C@@H](NC(=O)c1ccc(-c2ccccc2Cl)cc1)C1CCCCC1)C(=O)c1nnc(CC)o1 | -6.98%
C=Cc1ccc(Cn2c(C(=O)O)c(CNCc3cccc(C)c3)c3ccc(C)cc32)cc1 | 1.94%
O=C1OC(c2ccc(Cl)cc2)=N/C1=C/c1cc2ccccc2nc1N1CCOCC1 | 0.275%
CC1(C)CC(=O)c2c(nn(-c3ccccc3)c2N)C1 | 0.343%
CC(C)n1c(Sc2nccn2C)nc2c1c(=O)n(C)c(=O)n2C | 0.983%
CS/C=C(\c1ccccc1)c1ccncc1 | -2.87%

SMILES | % Inhibition @ 10 uM
CCCc1cc(=O)n(C)c(CC(=O)c2ccc(Cl)cc2)n1 | 6.79%
CC1CC(C)(C)NC(=S)N1CC(=O)NCc1ccc2c(c1)OCO2 (stereo not drawn) | 2.06%
CC(C)CCn1c(=O)c2sccc2n2c(CCCC(=O)NCc3ccco3)nnc12 | 1.66%
O=C(NCc1ccccc1Cl)C(=O)Nc1cccc(C(F)(F)F)c1 | -4.01%
CC(=O)Nc1ccc2ccccc2c1C#N | -2.85%
Clc1ccccc1CNc1cc2c(cc1Br)OCCO2 | 1.87%
CN(C)CCN(C)Cc1ccccc1F | -4.4%
CC(=O)c1cn(S(=O)(=O)c2ccccc2)c2ccccc12 | 3.81%
Cn1c(=O)c2sccc2n2c(CCCC(=O)NCc3cccnc3)nnc12 | -2.72%
O=C(NCCc1ccccc1)NC1CCCCC1 | -0.414%
CN(C)Cc1cc(C(C)(C)C)cc(C(C)(C)C)c1O | 4.8%
CCCCN(Cc1ccccc1)C1CCN(C(=O)OCC)CC1 | -1.82%
COc1cc2c(cc1OC)C(c1ccc(Br)cc1)=NCC2 | 0.345%
CCOC(=O)C1=C(CN2CCN(C(=O)OCC)CC2)NC(=O)NC1c1ccc(C)cc1 (stereo not drawn) | -1.65%
Cc1nnc2c3ccccc3nc(NCc3ccccc3)n12 | -3.9%
CC(=O)NS(=O)(=O)c1ccc(NC(=O)c2ccc(C(C)C)cc2)cc1 | 3.27%
COc1cc(CNC2CN3CCC2CC3)cc(OC)c1 (stereo not drawn) | -5.11%
CCOC(=O)c1noc2ncnc(N(Cc3ccco3)C3CCN(C)CC3)c12 | 1.63%
Cc1ccc(S(=O)(=O)c2cnc3ccc(F)cc3c2O)cc1C | -1.7%
CCCCC(=O)N1CCc2cc(OC)c(OC)cc2C1COc1ccc(C(=O)OC)cc1 (stereo not drawn) | 3.52%
COC(=O)c1c(N)sc2c1CCC(C(C)(C)C)C2 (stereo not drawn) | 1.8%
Cn1c(=O)c2c(-c3ccccc3)n(-c3ccc(F)cc3)cc2n(C)c1=O | -1.52%
C=CCN1C(=O)NC(=O)/C(=C/c2ccco2)C1=O | 5.98%
O=C1CSC(c2ccccc2)N1c1cccc(Cl)c1 (stereo not drawn) | -4.01%
COCCCN1CC(=O)C(c2nc3ccccc3s2)=C1N | -1.22%
Cc1cccc(C)c1-n1nnnc1C1(N(C)C)CCCCC1 | 4.44%

SMILES | % Inhibition @ 10 uM
Cc1ccccc1Cn1cnc2c(nnn2Cc2ccccc2F)c1=O | -5.79%
Brc1ccc(C2=CC(c3cccs3)n3c(nc4ccccc43)N2)s1 (stereo not drawn) | 1.73%
Nc1c(C(=O)Nc2ccccc2)sc2nccc(Nc3ccccc3)c12 | 43%
COc1cc2c(cc1OC)C(c1cc(OC)c(OC)c(OC)c1)CC(=O)N2 (stereo not drawn) | -3.09%
N#Cc1cc2c(N)c(C(=O)NCc3ccc(Cl)cc3)sc2nc1N | 42.4%
COc1cc(Br)c(C2C(C#N)=C(N)Oc3[nH]nc(-c4ccncc4)c32)cc1OC (stereo not drawn) | 7.43%
O=C(O)c1ccc2c(c1)C(=O)N(c1cccc(Cl)c1Cl)C2=O | 3.91%
COc1ccc(C(=O)C2=C(O)C(=O)N(CCCN3CCOCC3)C2c2ccc(C(C)(C)C)cc2)cc1 (stereo not drawn) | 3.8%
O=C(O)CCCN1C(=O)C(O)=C(C(=O)c2ccc(Cl)cc2)C1c1ccccc1 (stereo not drawn) | 3.49%
O=C1NCCCC[C@@H]1Nc1cnccn1 | -12.8%
CC1=C(C(=O)Nc2cc(C)ccn2)C(c2cccnc2)C2=C(O)CCCC2=N1 (stereo not drawn) | -2.24%
CCCCC(=O)N1CCc2cc(OC)c(OC)cc2C1COc1ccccc1OC (stereo not drawn) | 2.4%
CCC1CCc2c(sc(NC(=O)c3ccc(Br)o3)c2C(N)=O)C1 (stereo not drawn) | 6.15%
CCC(C)NC(=O)c1ccc(CS(=O)(=O)c2ccc(C)cc2)o1 (stereo not drawn) | -8.9%
Cc1ccn2c(NC(=O)Cc3ccccc3)c(-c3ccc(F)cc3)nc2c1 | -0.58%
Cc1nnc(SCC#CCO)s1 | 1.74%
Cc1cc(C)c(C)c(OCCCCN2CCOCC2)c1 | -0.351%
CCOc1ccc(S(=O)(=O)N=Nc2c(O)n(C)c3ccccc23)cc1 | 6.27%
C=Cc1ccc(Cn2c(C(=O)O)c(CNC(C)CCc3ccccc3)c3ccccc32)cc1 (stereo not drawn) | 3.54%
CCOc1cc(C2C(C#N)=C(N)OC3=C2C(=O)CCC3)ccc1OC (stereo not drawn) | 4.6%
Cc1cc(C)cc(N(CC(=O)NCC(O)c2ccccc2)S(=O)(=O)c2ccccc2)c1 (stereo not drawn) | -2.29%
CCOC(=O)C1CCCN(Cc2ccc(SC)cc2)C1 (stereo not drawn) | -0.192%
CC(C(=O)NCC1CCCO1)n1cccc1C(=O)c1ccccc1 (stereo not drawn) | -11.9%
Cc1ccc(/C=C2\N=C(c3ccc(C(C)(C)C)cc3)OC2=O)o1 | -8.97%
